In ChEMBL document CHEMBL4888484, “Replenishing the malaria drug discovery pipeline: Screening and hit evaluation of the MMV Hit Generation Library 1 (HGL1) against asexual blood stage Plasmodium falciparum ,using a nano luciferase reporter read-out” (2022):
Among all 150,000 compounds or so, about 540 (0.36%) showed an effect of 50% or more. The list shows a part of the results.

tested on: Plasmodium falciparum; test: Primary screen in NF54 nanoGlo assay, in single point, at 2uM, 72h; a lower Z score goes with more inhibition; assay type: functional, Erythrocyte; details: timepoint 72 hour

Row | Compound | % Inhibition | Z score
1 | CCN(CC)S(=O)(=O)c1ccc2c(c1)cc(C(=O)N1CCN(C3CCCCC3)CC1)n2C | -7% | 1.04
2 | C[C@H]1CCOCCN1C(=O)c1ccc(-c2cn[nH]c2)cn1 | -6% | 1.01
3 | CCc1nc2cc(CNC(=O)C3CCOCC3)ccc2n1C1CC1 | 1% | -0.15
4 | COc1ccc(Cl)c(NC(=O)[C@@H]2CC(=O)Nc3c(-c4ccccc4OC)cnn32)c1 | -8% | 1
5 | CN(C)[C@H]1CCN(C(=O)c2cccc(-c3ccc4cc[nH]c4c3)c2)C[C@@H]1O | 16% | -2.06
6 | O=C(COc1ccc2ccccc2c1)Nc1ccc(Nc2ccccc2)cc1 | 7% | -1.26
7 | COCc1cc(CNC(=O)[C@H]2CCc3ccccc3C2)n[nH]1 | -10% | 1.08
8 | Cc1nnc(CNC(=O)c2cc(=O)[nH]c3cc(F)ccc23)o1 | -7% | 0.92
9 | CCS(=O)(=O)N1C[C@@H]2CN(C(=O)c3ccccc3)C[C@]2(C(=O)N(C)C)C1 | -2% | 0.46
10 | Cn1nccc1C(=O)N1CCN(Cc2cccc(C#N)c2)C[C@H](O)C1 | -9% | 1.56
11 | FC(F)COc1ccc(-c2nc([C@H]3CCOC3)no2)cn1 | -4% | 0.53
12 | Cc1cnc(C(NC(C)c2nnnn2C2CC2)C2CC2)s1 (stereo not given) | -15% | 2.41
13 | O=C(CCNC(=O)N[C@@H]1C=CCCC1)Nc1ccccc1 | -8% | 0.98
14 | CCNC(=O)N[C@@H]1C=C[C@@H](c2c(C)nn(-c3ccc(C(C)(C)C)cc3)c2C)C1 | -4% | 0.61
15 | COc1c(F)c(F)cc(C(=O)NCc2cncc(-c3ccnn3C)c2)c1F | 12% | -1.52
16 | CCC[C@H](NC(C)=O)C(=O)NCCc1nc2ccccc2o1 | -13% | 2.2
17 | Cc1ccc(NC[C@H]2CCN(Cc3nc(C4CC4)no3)C2)nc1 | 2% | -0.19
18 | COCCN1CCCCC[C@H](O)c2cc(C(=O)N3CCc4ccccc43)ccc21 | -19% | 2.17
19 | CN(C[C@H]1COCCO1)C(=O)NCc1nc(C(C)(C)C)no1 | -8% | 1.6
20 | Cc1ccc(-c2nc3c([nH]2)CCNC3)c2cccnc12 | 4% | -0.81
21 | c1ccc2[nH]c(-c3nc4ccccc4o3)nc2c1 | -4% | 0.56
22 | COc1ccccc1N1CCN(C(=O)Cn2ncn3nc(-c4cccc5ccccc45)cc3c2=O)CC1 | -6% | 0.72

Row | Compound | % Inhibition | Z score
23 | CC1=CCCC(C)C1CNC(C)CCS(C)(=O)=O (stereo not given) | -6% | 0.63
24 | CC[C@H](Oc1ccccc1C)c1nnc(C2CCC2)o1 | 9% | -1.68
25 | CCN(CC(=O)Nc1ccc(NC(C)=O)cc1)C(=O)c1ccoc1 | 1% | -0.28
26 | CCOc1ncccc1C(=O)N1CCO[C@H](c2ccccc2)CC1 | -3% | 0.56
27 | C=CCN(Cc1ccc(F)cc1)C(=O)[C@@H]1COc2c(cccc2OC)C1 | -8% | 1.43
28 | CCC[C@H](C)c1nc(N2CCCN(C(=O)Cc3ccccc3)CC2)c2c(C)nn(-c3ccc(F)cc3)c2n1 | -2% | 0.45
29 | CCC(CNC(=O)N1CCS(=O)(=O)CC(C)C1)Oc1ccccc1C (stereo not given) | 8% | -1.45
30 | Cc1c([C@@H](NC(=O)Cn2cnnn2)C(C)C)oc2ccccc12 | -3% | 0.53
31 | CCc1ccc(CN2CCN(Cc3cccc(Oc4ccccc4)c3)CC2)cc1 | 31% | -0.25
32 | COCCOc1nc(-c2ccccc2C)n(-c2ccc(NC(=O)c3cccs3)cc2)n1 | -19% | 3.27
33 | CCn1ccc(C(=O)N2CC[C@H](c3nc(C)no3)[C@H](NC(=O)COC)C2)n1 | -13% | 1.68
34 | Nc1cc(C(=O)N2CCOCC2)ccc1N1CCCCC1 | -2% | 0.19
35 | Cc1cc(C(=O)NCCc2csc(C)n2)no1 | -8% | 1.54
36 | CCc1nc(NCCOC)c2cc(Cl)cc(Cl)c2n1 | -7% | 0.68
37 | CCOCCCNC(=O)c1snc2c(=O)n(Cc3ccccc3)cnc12 | -13% | 1.96
38 | O=C(NCC(F)(F)C(F)F)c1cccc2c1CCCN2 | -12% | 1.16
39 | Cc1ccc(CN(C)C(=O)c2ccn(C)c2C)o1 | 1% | -0.1
40 | COc1ccc(C(=O)N2CCC3(CC2)C[C@@H](N2CCOCC2)CCO3)cc1 | -14% | 1.85
41 | CCc1ccccc1NC(=O)Cn1nc2ccc(C(=O)NCc3ccccc3)cn2c1=O | -7% | 1.15
42 | CC(NCC1COc2ccccc2O1)c1cccnc1 (stereo not given) | -12% | 1.33
43 | O=C(c1ccccc1O)N1CCC2(CC1)c1nc[nH]c1CCN2C(=O)C1CCC1 | -4% | 0.34
44 | CC(Oc1ccccc1Br)C(=O)N1CC2OCCN(C)C2C1 (stereo not given) | -7% | 1.16

Row | Compound | % Inhibition | Z score
45 | CCOc1nnc(CN2CCC[C@H]2c2cnn(C)c2)s1 | -1% | 0.21
46 | CCOC(=O)c1c(CN(C)C)n(-c2ccc(OC)cc2)c2ccc(Oc3nccc(Nc4ccccc4)c3C#N)cc12 | -2% | 0.42
47 | O=C(c1ccccc1-c1nnn[nH]1)N1CCN(C/C=C/c2ccccc2)CC1 | 8% | -1.37
48 | Cc1ccc2cc(CNCc3cccc(Cl)c3)c(N3CCC(O)CC3)nc2c1 | -6% | 1
49 | Cc1noc(C)c1CC(=O)Nc1sccc1C#N | -16% | 2.11
50 | O=C1C[C@H](c2cccnc2)c2c(n(C3CCCCC3)[nH]c2=O)N1 | -4% | 0.52
51 | Cn1c(C(=O)N2CCN(c3ccccc3)CC2)cc2occc21 | -4% | 0.6
52 | Cc1cscc1C(=O)N1CCCS1(=O)=O | -4% | 0.38
53 | CCOC(=O)c1c(C)c(CCC(=O)NCc2ccccc2)n(C)c1C | 7% | -1.37
54 | C[C@H]1COCCN1S(=O)(=O)c1ccc2c(c1)CCO2 | -11% | 0.96
55 | Cc1cc(N(C)CC2CCN(CCO)CC2)nc(-c2ccccc2)n1 | -12% | 1.73
56 | CC1(C)COCCC[C@H]2CN(C(=O)Nc3cccc(F)c3)CC[C@H]2CC(=O)N(CC2CCC(F)(F)CC2)C[C@@H]1O | 32% | -3.64
57 | CCS(=O)(=O)N1CCC[C@H](c2nnc(-c3cccs3)o2)C1 | -9% | 1.67
58 | Cc1cc(O)n2nc(CC(=O)NCCCc3scnc3C)nc2n1 | -14% | 2.05
59 | CC(C)c1nccn1CCNc1ncc(Br)cn1 | 1% | -0.16
60 | CCOc1ncccc1C(=O)N1CCNC(=O)C1 | 4% | -0.56
61 | COCc1cccc(C(=O)NCC(=O)NC(C)C)n1 | -11% | 1.41
62 | Clc1cnc(COc2ccncc2)s1 | -10% | 1.05
63 | CC(C)c1nccn1CC(=O)N1CCc2ncccc21 | 3% | -0.52
64 | CC(NC(=O)C1CC1c1ccc(F)c(F)c1)c1ncon1 (stereo not given) | -10% | 0.87
65 | CC(=O)N[C@](C)(C(=O)OCC(C)C)C1CC1 | 7% | -1.4
66 | CCc1noc(CCNC(=O)C(C)(C)N2CCCC2)n1 | 1% | -0.29

Row | Compound | % Inhibition | Z score
67 | COc1ccc(OC)c(S(=O)(=O)N2CCC[C@@H]2CCc2noc(C)n2)c1 | -3% | 0.51
68 | Cc1nc(C)c(CC(=O)N(Cc2ccccn2)C[C@@H]2CCC(=O)N2)s1 | -16% | 1.4
69 | Cn1cc(S(=O)(=O)NC(=O)c2sccc2OC(F)F)cn1 | 3% | -0.56
70 | O=C(Cc1ccsc1)NC1(c2ccccc2)CCOCC1 | 2% | -0.29
71 | COc1ccc(OC)c(S(=O)(=O)N2CCC3(CCN(C)CC3)C2)c1 | -5% | 0.9
72 | CC(=O)NC[C@H]1CCCN(C(=O)c2cnn(C3CCCC3)c2C)C1 | 0% | 0
73 | COC[C@]1(O)CCOC2(CCN(C(=O)c3ccc4cc[nH]c4c3)CC2)C1 | -18% | 2.65
74 | O=C([C@H]1CCc2nncn2C1)N1CCC(F)(F)C1 | -3% | 0.62
75 | Cc1cc(Br)cc(N[C@H](c2cccnc2)c2ncc[nH]2)c1 | 33% | -7.24
76 | Cc1cc(C(=O)N2CCC[C@](C)(C#N)C2)nc(C)n1 | 0% | 0.01
77 | COCCCN(C)C(=O)CNC(=O)COc1ccccc1 | -5% | 0.69
78 | C/C=C(\C)CN(C)CCCc1c(C)n[nH]c1C | -11% | 1.02
79 | Cc1c(NC(=O)C(F)(F)C(F)(F)C(F)(F)F)cc(NC(=O)C(F)(F)C(F)(F)C(F)(F)F)cc1NC(=O)C(F)(F)C(F)(F)C(F)(F)F | -7% | 1.1
80 | CC(C)Cc1cc(Cn2cnc(-c3ccccc3)c2[C@H]2CCOC2)no1 | 5% | -0.81
81 | O=C(N1CCCC1)N1CCN(c2noc(C3CC3)n2)C[C@@H](O)C1 | 14% | -1.86
82 | Cc1c(NCc2csc(C3CCCC3)n2)cccc1C(=O)N1CCOCC1 | -9% | 1.04
83 | COc1ccc(N2C[C@@H](C(=O)N(CCc3ccccc3)Cc3ccccc3)CC2=O)cc1 | -4% | 0.37
84 | c1cnn(C2CCCCC2NCc2ccon2)c1 (stereo not given) | -6% | 0.81
85 | CC(=O)NCCNC(=O)c1cc(NCc2cccc(C)c2)cc(S(=O)(=O)Nc2ccccc2C)c1 | -1% | 0.16
